From the supplement of paper PMC8728848
The other results are listed elsewhere or left out.

Key:
Test in all cases: glycan array binding signal (z-score within array); higher = stronger binding
Conditions in all cases: glycan notation: IUPAC condensed, linker removed
[1] = biological target: Fuc(a1-2)[GalNAc(a1-3)]Gal(b1-3)GlcNAc(b1-6)GalNAc
Outline: (§1)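 The binding signal is a Z-score computed within each array. Data were drawn from 3228 arrays in the Consortium for Functional Glycomics database, restricted to those with a known protein sequence. Scores were averaged over arrays of the same protein sequence at different concentrations or buffers, and over linkers, and negative values can be taken as non-binding.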

[2] = biological target: Fuc(a1-2)[GalNAc(a1-3)]Gal(b1-4)Glc
Outline: as §1

[3] = biological target: Fuc(a1-2)[GalNAc(a1-3)]Gal(b1-4)GlcNAc
Outline: as §1

[4] = biological target: Fuc(a1-2)[GalNAc(a1-3)]Gal(b1-4)GlcNAc(b1-2)Man
Outline: as §1

[5] = biological target: Fuc(a1-2)[GalNAc(a1-3)]Gal(b1-4)GlcNAc(b1-2)Man(a1-3)[Fuc(a1-2)[GalNAc(a1-3)]Gal(b1-4)GlcNAc(b1-2)Man(a1-6)]Man(b1-4)GlcNAc(b1-4)GlcNAc
Outline: as §1

[6] = biological target: Fuc(a1-2)[GalNAc(a1-3)]Gal(b1-4)GlcNAc(b1-2)Man(a1-3)[Fuc(a1-2)[GalNAc(a1-3)]Gal(b1-4)GlcNAc(b1-2)Man(a1-6)]Man(b1-4)GlcNAc(b1-4)[Fuc(a1-6)]GlcNAc
Outline: as §1

[7] = biological target: Fuc(a1-2)[GalNAc(a1-3)]Gal(b1-4)GlcNAc(b1-3)Gal(b1-4)GlcNAc
Outline: as §1

[8] = biological target: Fuc(a1-2)[GalNAc(a1-3)]Gal(b1-4)GlcNAc(b1-3)Gal(b1-4)GlcNAc(b1-3)Gal(b1-4)GlcNAc
Outline: as §1

[9] = biological target: Fuc(a1-2)[GalNAc(a1-3)]Gal(b1-4)GlcNAc(b1-3)GalNAc
Outline: as §1

[10] = biological target: Fuc(a1-2)[GalNAc(a1-3)]Gal(b1-4)GlcNAc(b1-3)[Fuc(a1-2)[GalNAc(a1-3)]Gal(b1-4)GlcNAc(b1-6)]GalNAc
Outline: as §1

[11] = biological target: Fuc(a1-2)[GalNAc(a1-3)]Gal(b1-4)GlcNAc(b1-6)GalNAc
Outline: as §1

[12] = biological target: Fuc(a1-2)[GalNAc(a1-3)]Gal(b1-4)[Fuc(a1-3)]GlcNAc
Outline: as §1

[13] = biological target: Fuc(a1-2)[GalNAc(a1-3)]Gal(b1-4)[Fuc(a1-3)]GlcNAc(b1-3)GalNAc
Outline: as §1

[14] = biological target: Fuc(a1-2)[GalNAc(a1-4)]Gal(b1-4)GlcNAc
Outline: as §1

[15] = biological target: Fuc(a1-2)[GalNAc(b1-3)]Gal
Outline: as §1

Fuc(a1-3)GlcNAc = biological target: Fuc(a1-3)GlcNAc
Outline: as §1

[16] = biological target: Fuc(a1-3)[Gal(b1-4)]Glc6S
Outline: as §1

[17] = biological target: Fuc(a1-3)[Gal(b1-4)]GlcNAc
Outline: as §1

[18] = biological target: Fuc(a1-3)[Gal(b1-4)]GlcNAc(b1-2)Man
Outline: as §1

[19] = biological target: Fuc(a1-3)[Gal(b1-4)]GlcNAc(b1-2)Man(a1-3)[Fuc(a1-3)[Gal(b1-4)]GlcNAc(b1-2)Man(a1-6)]Man(b1-4)GlcNAc(b1-4)GlcNAc
Outline: as §1

[20] = biological target: Fuc(a1-3)[Gal(b1-4)]GlcNAc(b1-2)Man(a1-3)[Fuc(a1-3)[Gal(b1-4)]GlcNAc(b1-2)Man(a1-6)]Man(b1-4)GlcNAc(b1-4)[Fuc(a1-6)]GlcNAc
Outline: as §1

[21] = biological target: Fuc(a1-3)[Gal(b1-4)]GlcNAc(b1-3)Gal(b1-3)[Fuc(a1-4)]GlcNAc
Outline: as §1

[22] = biological target: Fuc(a1-3)[Gal(b1-4)]GlcNAc(b1-3)Gal(b1-4)[Fuc(a1-3)]GlcNAc
Outline: as §1

[23] = biological target: Fuc(a1-3)[Gal(b1-4)]GlcNAc(b1-3)Gal(b1-4)[Fuc(a1-3)]GlcNAc(b1-3)Gal(b1-4)[Fuc(a1-3)]GlcNAc
Outline: as §1

[24] = biological target: Fuc(a1-3)[Gal(b1-4)]GlcNAc(b1-3)GalNAc
Outline: as §1

[25] = biological target: Fuc(a1-3)[Gal(b1-4)]GlcNAc(b1-6)GalNAc
Outline: as §1

[26] = biological target: Fuc(a1-3)[Gal(b1-4)]GlcNAc(b1-6)[Gal(b1-3)GlcNAc(b1-3)]Gal(b1-4)Glc
Outline: as §1

[27] = biological target: Fuc(a1-3)[Gal(b1-4)]GlcNAc6S
Outline: as §1

[28] = biological target: Fuc(a1-3)[Gal3S(b1-4)]Glc
Outline: as §1

[29] = biological target: Fuc(a1-3)[Gal3S(b1-4)]GlcNAc
Outline: as §1

[30] = biological target: Fuc(a1-3)[Gal3S(b1-4)]GlcNAc6S
Outline: as §1

[31] = biological target: Fuc(a1-3)[GalNAc(b1-4)]GlcNAc
Outline: as §1

[32] = biological target: Fuc(a1-3)[GalNAc(b1-4)]GlcNAc6S
Outline: as §1

Fuc(a1-4)GlcNAc = biological target: Fuc(a1-4)GlcNAc
Outline: as §1

Fuc(b1-3)GlcNAc = biological target: Fuc(b1-3)GlcNAc
Outline: as §1

Gal(a1-2)Gal = biological target: Gal(a1-2)Gal
Outline: as §1

Gal(a1-3)Gal = biological target: Gal(a1-3)Gal
Outline: as §1

B1: PX15618A-bth-503-24-503 (Bacteroides thetaiotaomicron) (protein)
chain: NKSEDKLSGDDFWAQGNETNAEAFLLSIYNSFRNATMSQRPFLTYSGDMRCAPITAYSTGDKYVAYLANNDMGELRNTYPDDARGGLIMQWDVFYTAIQDANILLAEIDKVPGMDELKRSRFKAEAIFMRSLSYFFIVRAFGDVPYYTNAYNEAPLPRTNMVIVLQNCLADLQPLLDDDPGAEVLPWSYSSYSSKGIRASRGSVIALMMHINLWLVQFDAQNKEQYYRNVVSLGEELERNNGAYSLLDINRSSVIFAGGSDEGLFEIAQNINFNEIFMMNAKFSDNVSYSCLNKSMPLFCYSGDYLMTLFPMYEDDARKELWFDEKIYSTSVSSSAPKEIKKFWNIDTYGNGTITSNSGNQIVFRYAGALLLYAEALAALGTNDTKACELLNRVRNRAHASEINTSGSELMDAIFWERCRELIGEGHYYYDLVRTGKVYNRNYCMNPMTRTNFNVGAWTWPIHRNALKNNTQIGLNLFWE
[1]
  glycan array binding signal (z-score): 0.23
[2]
  glycan array binding signal (z-score): -0.32
[3]
  glycan array binding signal (z-score): -0.044
[4]
  glycan array binding signal (z-score): -0.461
[5]
  glycan array binding signal (z-score): 0.939
[6]
  glycan array binding signal (z-score): -0.377
[7]
  glycan array binding signal (z-score): -0.833
[8]
  glycan array binding signal (z-score): 0.336
[9]
  glycan array binding signal (z-score): -0.154
[10]
  glycan array binding signal (z-score): -0.576
[11]
  glycan array binding signal (z-score): -0.749
[12]
  glycan array binding signal (z-score): -0.159
[13]
  glycan array binding signal (z-score): 1.74
[14]
  glycan array binding signal (z-score): 0.616
[15]
  glycan array binding signal (z-score): 0.391
Fuc(a1-3)GlcNAc
  glycan array binding signal (z-score): -0.381
[16]
  glycan array binding signal (z-score): 1.64
[17]
  glycan array binding signal (z-score): 0.234
[18]
  glycan array binding signal (z-score): -0.455
[19]
  glycan array binding signal (z-score): -0.28
[20]
  glycan array binding signal (z-score): -0.266
[21]
  glycan array binding signal (z-score): -0.114
[22]
  glycan array binding signal (z-score): -0.341
[23]
  glycan array binding signal (z-score): -0.064
[24]
  glycan array binding signal (z-score): -0.5
[25]
  glycan array binding signal (z-score): -0.385
[26]
  glycan array binding signal (z-score): -0.745
[27]
  glycan array binding signal (z-score): -0.893
[28]
  glycan array binding signal (z-score): -0.486
[29]
  glycan array binding signal (z-score): -0.676
[30]
  glycan array binding signal (z-score): -0.697
[31]
  glycan array binding signal (z-score): 0.302
[32]
  glycan array binding signal (z-score): -0.803
Fuc(a1-4)GlcNAc
  glycan array binding signal (z-score): 0.724
Fuc(b1-3)GlcNAc
  glycan array binding signal (z-score): -0.384
Gal(a1-2)Gal
  glycan array binding signal (z-score): -0.293
Gal(a1-3)Gal
  glycan array binding signal (z-score): 0.035
